This note sets out measurements from article PMC11995724, “Antibiotic target discovery by integrated phenotypic and activity-based profiling of electrophilic fragments” (Cell chemical biology, 2025).

Hit rate of the full screen: of about 3,200 compounds, about 110 (3.4%) showed an effect of 50% or more. This is one part of the list.

For this assay, the system named is T1, V. cholerae SAD30.
T1 construct: SAD30
Further details: species or system S. aureus MSSA476 (TSB) or V. cholerae SAD30 (LB); 384-well bacterial growth screen at 25 uM, OD600 relative to DMSO control. The conditions noted are these: relative growth, OD600, LB; 25 µM; inhibitor.
Regarding `C=CC(=O)N1CCC(CC(C)(C)C)C1` (centres unmarked) [2-O19, 1-[3-(2,2-dimethylpropyl)pyrrolidin-1-yl]prop-2-en-1-one], the “% of control remaining” value was determined as 86.6448%.

In the case of `CC(Cl)C(=O)Nc1ccccc1C#N` (centres unmarked) [6-A11, 2-chloro-N-(2-cyanophenyl)propanamide], the “% of control remaining” value is recorded as 96.0091%.

With `CC(Cl)C(=O)Nc1cccc(S(=O)(=O)N(C)C)c1` (centres unmarked) [5-A07, 2-chloro-N-[3-(dimethylsulfamoyl)phenyl]propanamide], the “% of control remaining” value was 104.403%.

As to `CN(CC(=O)Nc1ccc(Cl)c(C(F)(F)F)c1)C(=O)CCl` [4-E19, 2-chloro-N-({[4-chloro-3-(trifluoromethyl)phenyl]carbamoyl}methyl)-N-methylacetamide], the “% of control remaining” value is 95.234%.

As to `C=CC(=O)Nc1ccc(N2CCCCC2)c(F)c1` [2-I22, N-[3-fluoro-4-(piperidin-1-yl)phenyl]prop-2-enamide], the “% of control remaining” value is 107.025%.

`CN(CC(=O)NC1CCC(O)CC1)C(=O)CCl` (centres unmarked) [7-L08, 2-chloro-N-{[(4-hydroxycyclohexyl)carbamoyl]methyl}-N-methylacetamide]: the “% of control remaining” value is 83.2645%.

In the case of `O=C(CCl)Nc1cccc(NC(=O)c2ccccc2)c1` [6-A03, N-[3-(2-chloroacetamido)phenyl]benzamide], the “% of control remaining” value is 105.565%.

As to `N#CC(=Cc1ccsc1)C(=O)Nc1ccccc1Cl` [9-O05, N-(2-chlorophenyl)-2-cyano-3-(thiophen-3-yl)prop-2-enamide], the “% of control remaining” value came to 98.9123%.

In the case of `Cc1nn(C)c(C)c1C=C(C#N)C(=O)Nc1ccccc1Cl` [9-F11, N-(2-chlorophenyl)-2-cyano-3-(1,3,5-trimethyl-1H-pyrazol-4-yl)prop-2-enamide], the “% of control remaining” value was found to be 85.9959%.

In the case of `CC(Cl)C(=O)N(C)C[C@@H]1C[C@H](F)CN1c1ccnc(N(C)C)n1` (stereo partly drawn) [7-K16, 2-chloro-N-{[(2S,4S)-1-[2-(dimethylamino)pyrimidin-4-yl]-4-fluoropyrrolidin-2-yl]methyl}-N-methylpropanamide], the “% of control remaining” value was 71.1052%.

As to `O=C(CCl)N(Cc1ccco1)c1ccccc1` [4-L14, 2-chloro-N-[(furan-2-yl)methyl]-N-phenylacetamide], the “% of control remaining” value worked out at 102.998%.

Consider `C=CC(=O)N(C)CC(=O)N1CCN(C(=O)C2CCCCC2)CC1` [3-O10, N-[2-(4-cyclohexanecarbonylpiperazin-1-yl)-2-oxoethyl]-N-methylprop-2-enamide], for which the “% of control remaining” value is 102.323%.

Turning to `C=CC(=O)N1CCC(C(=O)Nc2ccc3c(c2)CCN3C(N)=O)CC1` [3-E16, 5-[1-(prop-2-enoyl)piperidine-4-amido]-2,3-dihydro-1H-indole-1-carboxamide], the “% of control remaining” value stood at 90.5017%.

`O=C(CCl)N(Cc1ccccc1)Cc1ccco1` [5-F22, N-benzyl-2-chloro-N-[(furan-2-yl)methyl]acetamide]: the “% of control remaining” value is given as 104.066%.

On to `C=CC(=O)N(Cc1cn(C)nc1CC)C1CCCCCC1` [1-H09, N-cycloheptyl-N-[(3-ethyl-1-methyl-1H-pyrazol-4-yl)methyl]prop-2-enamide], for which the “% of control remaining” value amounted to 81.0164%.

Regarding `C=CC(=O)N(C)CC(=O)N1CCC(CN2CCCCC2=O)CC1` [2-F16, N-methyl-N-(2-oxo-2-{4-[(2-oxopiperidin-1-yl)methyl]piperidin-1-yl}ethyl)prop-2-enamide], the “% of control remaining” value is reported as 88.6519%.

Turning to `O=C1C=CC(=O)N1CCc1ccc(F)cc1` [10-C21, 1-[2-(4-fluorophenyl)ethyl]-2,5-dihydro-1H-pyrrole-2,5-dione], the “% of control remaining” value is reported as 34.7555%.

Consider `CC(Cl)C(=O)N1CCc2c(nnn2C)C1` (centres unmarked) [7-G22, 2-chloro-1-{1-methyl-1H,4H,5H,6H,7H-[1,2,3]triazolo[4,5-c]pyridin-5-yl}propan-1-one], for which the “% of control remaining” value was found to be 90.1371%.

Consider `O=C(CCl)Nc1ccc(Cl)cc1F` [4-E03, 2-chloro-N-(4-chloro-2-fluorophenyl)acetamide], for which the “% of control remaining” value is reported as 111.279%.

Regarding `O=C(CCl)N1CCC(C2CCCN(C(=O)C(F)(F)F)C2)CC1` (centres unmarked) [5-E20, 1-[1'-(2-chloroacetyl)-[3,4'-bipiperidin]-1-yl]-2,2,2-trifluoroethan-1-one], the “% of control remaining” value came out at 100.2%.

Regarding `CSc1ccc(C=C(C#N)C(=O)Nc2cccc(Cl)c2C)cc1` [8-N11, N-(3-chloro-2-methylphenyl)-2-cyano-3-[4-(methylsulfanyl)phenyl]prop-2-enamide], the “% of control remaining” value is 71.7199%.

Turning to `CC1CC(C)CN(S(=O)(=O)c2ccc(NC(=O)CCl)cc2)C1` (centres unmarked) [4-K16, 2-chloro-N-{4-[(3,5-dimethylpiperidin-1-yl)sulfonyl]phenyl}acetamide], the “% of control remaining” value worked out at 100.237%.

Regarding `CC(c1ccc(C(F)(F)F)c(Cl)c1)N(C)C(=O)CCl` (centres unmarked) [7-F14, 2-chloro-N-{1-[3-chloro-4-(trifluoromethyl)phenyl]ethyl}-N-methylacetamide], the “% of control remaining” value stood at 73.8807%.

With `CC(Cl)C(=O)Nc1ccccc1[N+](=O)[O-]` (centres unmarked) [4-G18, 2-chloro-N-(2-nitrophenyl)propanamide], the “% of control remaining” value is recorded as 96.0966%.

Consider `N#CC(=Cc1cccc(Cl)c1Cl)C(=O)NCc1ccco1` [8-P04, 2-cyano-3-(2,3-dichlorophenyl)-N-[(furan-2-yl)methyl]prop-2-enamide], for which the “% of control remaining” value was found to be 76.0707%.

As to `CCN(C(=O)C(C)Cl)c1ccccc1` (centres unmarked) [4-P16, 2-chloro-N-ethyl-N-phenylpropanamide], the “% of control remaining” value was 121.63%.

As for `N#CC(=Cc1cccc(O)c1)C(=O)Nc1ccc(N2CCOCC2)cc1` [8-I14, 2-cyano-3-(3-hydroxyphenyl)-N-[4-(morpholin-4-yl)phenyl]prop-2-enamide], the “% of control remaining” value amounted to 71.0401%.

For the compound `CN(C)S(=O)(=O)c1ccc(NC(=O)CCl)cc1` [5-J11, 2-chloro-N-[4-(dimethylsulfamoyl)phenyl]acetamide], the “% of control remaining” value is given as 99.359%.

Regarding `CC(C)C(NC(=O)CCl)c1ccc2c(c1)OCCCO2` (centres unmarked) [4-N14, 2-chloro-N-[1-(3,4-dihydro-2H-1,5-benzodioxepin-7-yl)-2-methylpropyl]acetamide], the “% of control remaining” value amounted to 102.998%.
